Test results: patent US20250066451A1 (SWEDISH ORPHAN BIOVITRUM AB PUBL, published 2025)
Changes are numbered by the printed parent chain. Names may count otherwise.

T1: Human IL-1R-I-Fc (Creative BioMart cat. no. IL1RI-771H) (human, UniProt P14778 18-332, limits assumed)
T1 construct: Bought Fc fusion; also called hIL-1R-I-Fc; hIL-1RI-Fc; not shown: Fc part of the bought fusion
T1 sequence (looked up): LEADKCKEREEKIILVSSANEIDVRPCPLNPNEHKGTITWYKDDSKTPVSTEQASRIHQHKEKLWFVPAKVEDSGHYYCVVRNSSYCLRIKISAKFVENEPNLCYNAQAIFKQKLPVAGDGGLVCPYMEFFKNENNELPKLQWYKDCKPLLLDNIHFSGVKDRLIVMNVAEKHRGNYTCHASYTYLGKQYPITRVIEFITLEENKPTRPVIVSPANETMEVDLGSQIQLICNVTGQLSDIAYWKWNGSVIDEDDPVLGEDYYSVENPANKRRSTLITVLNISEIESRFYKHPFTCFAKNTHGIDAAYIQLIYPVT

B1: Z18826 (designed binder)
chain: AQHDEALEVDAKYAKEIEEIQMEIFGLPNLTRRQYTAFIRKLLDDPSQSSELLSEAKKLNDSQAPKVDYVLAEAKVLANRELDKYGVSDYYKNLINNAKTVEGVKALIDEILAALPYVPG
notes: Z-ABD001 fusion in periplasmic extract; also called Z-ABD
B2: Z19151 (designed binder)
chain: B1 chain with I17V, E19D, M22L, G26A
notes: as for B1
B3: Z19118 (designed binder)
chain: B1 chain with E19H, I20V, M22Y, G26A, R33K
notes: as for B1
B4: Z18904 (designed binder)
chain: B1 chain with I17V, M22L, G26A, R33K
notes: as for B1
B5: Z18886 (designed binder)
chain: B1 chain with E19A, R33K
notes: as for B1
B6: Z18832 (designed binder)
chain: B1 chain with I17V, G26H
notes: as for B1
B7: Z19304 (designed binder)
chain: B1 chain with I17T, E19Q, I20V, G26H, R33K
notes: as for B1
B8: Z18908 (designed binder)
chain: B1 chain with M22L, G26A, R33K
notes: as for B1
B9: Z18836 (designed binder)
chain: B1 chain with I17V, E19A
notes: as for B1
B10: Z18884 (designed binder)
chain: B1 chain with I17V, E19I
notes: as for B1
B11: Z18877 (designed binder)
chain: B1 chain with I17V, G26Y, R33K
notes: as for B1
B12: Z18875 (designed binder)
chain: B1 chain with E19A, G26H
notes: as for B1
B13: Z18920 (designed binder)
chain: B1 chain with I17T, G26R
notes: as for B1
B14: Z19056 (designed binder)
chain: B1 chain with I17V, M22L, F25Y, G26A, R33K
notes: as for B1
B15: Z19090 (designed binder)
chain: B1 chain with I20V, G26H
notes: as for B1
B16: Z19012 (designed binder)
chain: B1 chain with I17V, I20V, M22L, G26A, R33K
notes: as for B1
B17: Z19123 (designed binder)
chain: B1 chain with E19K, I20A, G26A
notes: as for B1
B18: Z19181 (designed binder)
chain: B1 chain with I17V, I20V, M22L, F25Y, G26S
notes: as for B1
B19: Z19302 (designed binder)
chain: B1 chain with E19A, I20V, G26H, R33K
notes: as for B1
B20: Z19183 (designed binder)
chain: B1 chain with E19D, I20A, F25Y, G26D
notes: as for B1
B21: Z19158 (designed binder)
chain: B1 chain with I17T, G26A
notes: as for B1
B22: Z18917 (designed binder)
chain: B1 chain with M22F, F25Y, G26D, R33K, L43F
notes: as for B1
B23: Z19053 (designed binder)
chain: B1 chain with E19D, I20V, M22L, G26K
notes: as for B1
B24: Z18971 (designed binder)
chain: B1 chain with E19S, I20V, M22L
notes: as for B1
B25: Z18846 (designed binder)
chain: B1 chain with G26H
notes: as for B1
B26: Z19085 (designed binder)
chain: B1 chain with I17V, M22Y, R33K
notes: as for B1
B27: Z19057 (designed binder)
chain: B1 chain with E19Q, I20V, M22L, R33K
notes: as for B1
B28: Z18866 (designed binder)
chain: B1 chain with G26H, R33K
notes: as for B1
B29: Z19182 (designed binder)
chain: B1 chain with I17V, E19A, G26Q
notes: as for B1
B30: Z19075 (designed binder)
chain: B1 chain with I17V, E19I, M22Y, R33K
notes: as for B1
B31: Z18827 (designed binder)
chain: B1 chain with I17T, E19K, I20V, G26R
notes: as for B1
B32: Z19115 (designed binder)
chain: B1 chain with I17T, M22L, G26S, R33K
notes: as for B1
B33: Z19078 (designed binder)
chain: B1 chain with E19A, I20A, R33K
notes: as for B1
B34: Z18912 (designed binder)
chain: B1 chain with I17T, G26H, R33K
notes: as for B1
B35: Z18888 (designed binder)
chain: B1 chain with I17V, E19A, G26H, R33K
notes: as for B1
B36: Z18882 (designed binder)
chain: B1 chain with I17V, I20V, G26D
notes: as for B1
B37: Z18834 (designed binder)
chain: B1 chain with I17V
notes: as for B1
B38: Z18874 (designed binder)
chain: B1 chain with I17L, E19A, G26H
notes: as for B1
B39: Z19159 (designed binder)
chain: B1 chain with I17T, I20V, G26A
notes: as for B1
B40: Z19171 (designed binder)
chain: B1 chain with E19D, M22L, R33K
notes: as for B1
B41: Z18887 (designed binder)
chain: B1 chain with I17V, E19V, G26R
notes: as for B1
B42: Z19059 (designed binder)
chain: B1 chain with I17V, I20A, F25Y, R33K
notes: as for B1
B43: Z18982 (designed binder)
chain: B1 chain with I20V, M22L, G26S, R33K
notes: as for B1
B44: Z18843 (designed binder)
chain: B1 chain with G26Y
notes: as for B1
B45: Z19180 (designed binder)
chain: B1 chain with I17V, E19I, G26H
notes: as for B1
B46: Z19117 (designed binder)
chain: B1 chain with E19A, M22L, G26A, R33K
notes: as for B1
B47: Z18967 (designed binder)
chain: B1 chain with E19V, I20V, G26H, R33K
notes: as for B1
B48: Z18890 (designed binder)
chain: B1 chain with I17L, E19K, I20V
notes: as for B1
B49: Z18831 (designed binder)
chain: B1 chain with I20V, G26Y
notes: as for B1
B50: Z19060 (designed binder)
chain: B1 chain with I17V, E19W, I20A, G26D, R33K
notes: as for B1
B51: Z18879 (designed binder)
chain: B1 chain with I17V, E19Y, G26R
notes: as for B1
B52: Z19054 (designed binder)
chain: B1 chain with E19W, I20V, M22L, G26H, R33K
notes: as for B1
B53: Z19172 (designed binder)
chain: B1 chain with I17L, E19D, I20V, M22L, G26S
notes: as for B1
B54: Z18881 (designed binder)
chain: B1 chain with L43F
notes: as for B1
B55: Z18968 (designed binder)
chain: B1 chain with I17L, I20V, M22L, G26R, R40I
notes: as for B1
B56: Z19072 (designed binder)
chain: B1 chain with M22L, G26S, R33K
notes: as for B1
B57: Z18878 (designed binder)
chain: B1 chain with I17V, I20V, G26Y, R33K
notes: as for B1
B58: Z18889 (designed binder)
chain: B1 chain with I17V, I20V, G26R
notes: as for B1
B59: Z18966 (designed binder)
chain: B1 chain with I17T, I20V, G26R, R33K
notes: as for B1

Each binder was assayed against T1, Human IL-1R-I-Fc (Creative BioMart cat. …) (assay: ELISA, captured Z-ABD, hIL-1R-I-Fc titrated).

| EC50 | Binder |
| --- | --- |
| 0.24 nM | B1 |
| 0.23 nM | B2 |
| 0.23 nM | B3 |
| 0.38 nM | B4 |
| 0.29 nM | B5 |
| 0.15 nM | B6 |
| 0.27 nM | B7 |
| 0.24 nM | B8 |
| 0.23 nM | B9 |
| 0.23 nM | B10 |
| 0.35 nM | B11 |
| 0.29 nM | B12 |
| 0.24 nM | B13 |
| 0.22 nM | B14 |
| 0.2 nM | B15 |
| 0.24 nM | B16 |
| 0.26 nM | B17 |
| 0.18 nM | B18 |
| 0.26 nM | B19 |
| 0.22 nM | B20 |

| EC50 | Binder |
| --- | --- |
| 0.15 nM | B21 |
| 0.22 nM | B22 |
| 0.24 nM | B23 |
| 0.35 nM | B24 |
| 0.19 nM | B25 |
| 0.21 nM | B26 |
| 0.22 nM | B27 |
| 0.31 nM | B28 |
| 0.17 nM | B29 |
| 0.15 nM | B30 |
| 0.24 nM | B31 |
| 0.23 nM | B32 |
| 0.22 nM | B33 |
| 0.14 nM | B34 |
| 0.23 nM | B35 |
| 0.31 nM | B36 |
| 0.25 nM | B37 |
| 0.22 nM | B38 |
| 0.21 nM | B39 |
| 0.23 nM | B40 |

| EC50 | Binder |
| --- | --- |
| 0.21 nM | B41 |
| 0.35 nM | B42 |
| 0.25 nM | B43 |
| 0.28 nM | B44 |
| 0.2 nM | B45 |
| 0.21 nM | B46 |
| 0.31 nM | B47 |
| 0.25 nM | B48 |
| 0.29 nM | B49 |
| 0.22 nM | B50 |
| 0.34 nM | B51 |
| 0.25 nM | B52 |
| 0.16 nM | B53 |
| 0.28 nM | B54 |
| 0.2 nM | B55 |
| 0.16 nM | B56 |
| 0.37 nM | B57 |
| 0.24 nM | B58 |
| 0.25 nM | B59 |
